The text below walks through data of the GPR68 mutational scans of Howard et al. (2025).

To fix the notation:
B1: GPR68, Q15743 (parent)
chain: MGNITADNSSMSCTIDHTIHQTLAPVVYVTVLVVGFPANCLSLYFGYLQIKARNELGVYLCNLTVADLFYICSLPFWLQYVLQHDNWSHGDLSCQVCGILLYENIYISVGFLCCISVDRYLAVAHPFRFHQFRTLKAAVGVSVVIWAKELLTSIYFLMHEEVIEDENQHRVCFEHYPIQAWQRAINYYRFLVGFLFPICLLLASYQGILRAVRRSHGTQKSRKDQIQRLVLSTVVIFLACFLPYHVLLLVRSVWEASCDFAKGVFNAYHFSLLLTSFNCVADPVLYCFVSETTHRDLARLRGACLAFLTCSRTGRAREAYPLGAPEASGKSGAQGEEPELLTKLHPAFQTPNSPGSGGFPTGRLA

The least precise scores are not listed. Two further conditions of the source, in which the scores hardly spread, are not listed. Read del as a deletion of the residues named and ins as an insertion between two positions. For part of these data: The data file names ogerin without a concentration.

In data set [1] the parent is B1. In words: cAMP reporter score (Enrich2 score, wild type = 0); higher = more signal; HEK293T, FACS bins.
In data set [2] the parent is B1. In words: surface expression score (Enrich2 score, wild type = 0); higher = more signal; HEK293T, FACS bins.

On to F241del, for which the cAMP reporter score in data set [1] (pH 5.5) was -1.87; in data set [1] (pH 6), -0.984; in data set [1] (pH 6, modulator: ogerin), -1.7; in data set [1] (pH 6.5, modulator: ogerin), -0.56. In addition, in data set [2], the surface expression score is -1.83.
Taken in the same sequence, the figures for I236_F237del were -1.26, -1.57, -2.07, -1.46 and -2.27.
Taken in the same sequence, the figures for T233L were -0.221, -0.188, -0.059, -0.495 and -0.558.
For the variant T233I, the cAMP reporter score in data set [1] (pH 5.5) was -0.58; in data set [1] (pH 6), 0.033; in data set [1] (pH 6, modulator: ogerin) it was -1.01; in data set [1] (pH 6.5, modulator: ogerin), -0.72. In addition, the surface expression score in data set [2] came out at 0.48.
The like results for T233R were, in that order, -2.08, -0.78, -1.26, -2.74 and -2.46.
Consider T233F, for which the cAMP reporter score is -0.033 in data set [1] (pH 5.5) and -0.336 in data set [1] (pH 6, modulator: ogerin). The surface expression score in data set [2] is -2.34.
With T233A, the cAMP reporter score was -1.82 in data set [1] (pH 5.5); -1.14 in data set [1] (pH 6); -1.43 in data set [1] (pH 6.5, modulator: ogerin). In addition, in data set [2], the surface expression score was -0.47.
For T233H, the cAMP reporter score in data set [1] (pH 5.5) is -0.383; in data set [1] (pH 6) it was 0.188; in data set [1] (pH 6, modulator: ogerin), -0.779; in data set [1] (pH 6.5, modulator: ogerin), -1.58.
Consider T233M, for which the cAMP reporter score in data set [1] (pH 5.5) is -1.41; in data set [1] (pH 6), -1.2; in data set [1] (pH 6, modulator: ogerin), -1.23; in data set [1] (pH 6.5, modulator: ogerin) it was -1.77. For the same variant, the surface expression score in data set [2] was -1.12.
Taken in the same sequence, the figures for T233V were -0.866, -0.366, -1.68, -0.666 and 0.023.
Taken in the same sequence, the figures for T233W were -1.7, -0.952, -0.994, -1.72 and -2.42.
The like results for T233G were, in that order, -0.247, -0.144, -1.5, -1.5 and -0.602.
As to T233N, the cAMP reporter score in data set [1] (pH 5.5) was -0.228; in data set [1] (pH 6) it was 0.362; in data set [1] (pH 6, modulator: ogerin), -0.495; in data set [1] (pH 6.5, modulator: ogerin) it was 0.063. Also, in data set [2], the surface expression score is -1.04.
For T233C, the cAMP reporter score in data set [1] (pH 5.5) was -0.693; in data set [1] (pH 6) it was 0.183; in data set [1] (pH 6, modulator: ogerin), -1.88. For the same variant, the surface expression score in data set [2] was 1.05.
For the variant T233S, the cAMP reporter score in data set [1] (pH 5.5) is -0.133; in data set [1] (pH 6, modulator: ogerin), 1.13; in data set [1] (pH 6.5, modulator: ogerin), -0.112. The surface expression score in data set [2] was -0.595.
With T233D, the cAMP reporter score is 0.253 in data set [1] (pH 5.5); -0.703 in data set [1] (pH 6, modulator: ogerin); -0.485 in data set [1] (pH 6.5, modulator: ogerin).
Take T233Y: the cAMP reporter score in data set [1] (pH 5.5) is -0.387; in data set [1] (pH 6, modulator: ogerin), -0.577. The surface expression score in data set [2] was -0.289.
T233P: the cAMP reporter score in data set [1] (pH 5.5) is -1.74; in data set [1] (pH 6, modulator: ogerin) it was -1.6. In data set [2], the surface expression score is -2.86.
T233Q: the cAMP reporter score in data set [1] (pH 5.5) came out at 1.42; in data set [1] (pH 6), 2.5; in data set [1] (pH 6, modulator: ogerin), 0.313; in data set [1] (pH 6.5, modulator: ogerin), 2.28. In addition, the surface expression score in data set [2] is -0.395.
The like results for Q227_R228del were, in that order, -0.454, -1.58, -0.894, -0.612 and -0.099.
As for S252Q, the cAMP reporter score was -1 in data set [1] (pH 5.5); -1.23 in data set [1] (pH 6); -1.39 in data set [1] (pH 6, modulator: ogerin); -2.2 in data set [1] (pH 6.5, modulator: ogerin).
As to S252W, the cAMP reporter score is -1.35 in data set [1] (pH 5.5); -1.02 in data set [1] (pH 6); -1.27 in data set [1] (pH 6.5, modulator: ogerin). The surface expression score in data set [2] is -1.99.
In the case of S252Y, the cAMP reporter score in data set [1] (pH 5.5) is -1.28; in data set [1] (pH 6) it was -0.987; in data set [1] (pH 6, modulator: ogerin) it was -1.62; in data set [1] (pH 6.5, modulator: ogerin), -1.09. In data set [2], the surface expression score is -2.04.
For the variant S252T, the cAMP reporter score was -0.08 in data set [1] (pH 5.5); -0.674 in data set [1] (pH 6); 0.196 in data set [1] (pH 6, modulator: ogerin); 0.067 in data set [1] (pH 6.5, modulator: ogerin). The surface expression score in data set [2] was 0.561.
Regarding S252F, the cAMP reporter score in data set [1] (pH 5.5) is -1.22; in data set [1] (pH 6, modulator: ogerin), -0.71; in data set [1] (pH 6.5, modulator: ogerin), -1.39. Also, the surface expression score in data set [2] is -1.88.
As for S252K, the cAMP reporter score was 0.03 in data set [1] (pH 5.5); 0.155 in data set [1] (pH 6); -0.485 in data set [1] (pH 6, modulator: ogerin). In addition, in data set [2], the surface expression score is -2.35.
For the variant S252G, the cAMP reporter score in data set [1] (pH 5.5) was -0.603; in data set [1] (pH 6) it was -0.011; in data set [1] (pH 6, modulator: ogerin), -0.216; in data set [1] (pH 6.5, modulator: ogerin) it was 0.178. In addition, in data set [2], the surface expression score was -0.606.
As to S252V, the cAMP reporter score was 0.535 in data set [1] (pH 5.5); -0.551 in data set [1] (pH 6); 1.41 in data set [1] (pH 6, modulator: ogerin); 0.343 in data set [1] (pH 6.5, modulator: ogerin). For the same variant, the surface expression score in data set [2] is -1.05.
As for S252M, the cAMP reporter score in data set [1] (pH 5.5) is -0.791; in data set [1] (pH 6) it was -1.28; in data set [1] (pH 6, modulator: ogerin), -1.81. In addition, in data set [2], the surface expression score is -0.54.
As for S252I, the cAMP reporter score was 0.293 in data set [1] (pH 5.5); -0.763 in data set [1] (pH 6); 0.013 in data set [1] (pH 6, modulator: ogerin); -0.461 in data set [1] (pH 6.5, modulator: ogerin). The surface expression score in data set [2] is -0.305.
The like results for S252L were, in that order, -1.17, -1.35, -0.799, -0.759 and -0.003.
Regarding S252C, the cAMP reporter score in data set [1] (pH 5.5) came to 0.33; in data set [1] (pH 6, modulator: ogerin), 0.025; in data set [1] (pH 6.5, modulator: ogerin) it was 0.927. For the same variant, the surface expression score in data set [2] was -1.74.
For S252E, the cAMP reporter score in data set [1] (pH 5.5) was -1.15; in data set [1] (pH 6), -1.13; in data set [1] (pH 6, modulator: ogerin), -1.58; in data set [1] (pH 6.5, modulator: ogerin), -1.3. In data set [2], the surface expression score was -1.62.
